Measurements: the BET-seq Pho4 binding data (Le et al. 2018)
The list shows a part of the results. These are noisy estimates, calculated here from bound and input reads.

molecular target: T1, Pho4 (S. cerevisiae) (UniProt P07270); assay: relative binding free energy (BET-seq); higher = weaker binding; details: reference: library average
T1 sequence: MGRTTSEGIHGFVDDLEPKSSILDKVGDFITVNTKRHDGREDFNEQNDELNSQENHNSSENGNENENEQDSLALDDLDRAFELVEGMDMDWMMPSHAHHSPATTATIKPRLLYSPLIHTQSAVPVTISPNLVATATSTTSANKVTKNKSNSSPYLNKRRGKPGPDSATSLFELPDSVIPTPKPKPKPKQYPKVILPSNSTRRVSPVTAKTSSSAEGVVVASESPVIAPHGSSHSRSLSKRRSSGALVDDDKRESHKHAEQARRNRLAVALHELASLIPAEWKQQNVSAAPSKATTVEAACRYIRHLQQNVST

| Sequence | relative binding free energy |
| --- | --- |
| GTACGCACGTGGAATG | 0.1 kcal/mol |
| ATGTTCACGTGAGGTT | 0.25 kcal/mol |
| GGCGGCACGTGAGGCG | 0.23 kcal/mol |
| ATGTGCACGTGCATGG | -0.13 kcal/mol |
| TTTGGCACGTGAGGCG | 0.15 kcal/mol |
| ATTTACACGTGGTATT | -0.03 kcal/mol |
| AGGGGCACGTGTTTCG | -0.16 kcal/mol |
| AGCTGCACGTGTTTGT | -0.03 kcal/mol |
| AGTTGCACGTGATTGC | 0.14 kcal/mol |
| GGTTACACGTGTACTG | 0.22 kcal/mol |
| GCTGTCACGTGGTATT | 0.12 kcal/mol |
| ATTTGCACGTGTATCG | -0.04 kcal/mol |
| TTTATCACGTGGTCTT | -0.01 kcal/mol |
| ATGTGCACGTGATTCG | 0.03 kcal/mol |
| TTTTACACGTGGGCAA | -0.03 kcal/mol |
| TGGTTCACGTGGATTT | 0.43 kcal/mol |
| ATGGACACGTGCTGGT | -0.02 kcal/mol |
| GGGTCCACGTGTAAGG | 0.06 kcal/mol |
| TCTGGCACGTGTAGTC | 0.01 kcal/mol |
| GTTGGCACGTGAGGAT | 0.19 kcal/mol |
| AAGGGCACGTGGTAGT | -0.15 kcal/mol |
| TTGTGCACGTGTGATA | -0.07 kcal/mol |
| CTATGCACGTGGGTGT | -0.33 kcal/mol |
| GAGGTCACGTGATGCG | 0.27 kcal/mol |
| TCGATCACGTGGGAGG | 0.21 kcal/mol |

| Sequence | relative binding free energy |
| --- | --- |
| GTCGTCACGTGAGTGA | 0.3 kcal/mol |
| CTCTTCACGTGTGGGG | 0.27 kcal/mol |
| GTGATCACGTGTGGAT | 0.1 kcal/mol |
| GAAGGCACGTGCGAGT | -0.04 kcal/mol |
| GTGGGCACGTGAGTTG | 0.22 kcal/mol |
| CTGGGCACGTGTGGCG | -0.01 kcal/mol |
| AGTATCACGTGGTAGG | 0.07 kcal/mol |
| ATTGACACGTGGGGCT | -0.17 kcal/mol |
| AGAGACACGTGAAGTG | 0.18 kcal/mol |
| TGAGCCACGTGGTTCG | 0.1 kcal/mol |
| GGTTACACGTGAATGT | 0.31 kcal/mol |
| AACGACACGTGTTTGT | 0.15 kcal/mol |
| TGTGACACGTGGCATA | -0.05 kcal/mol |
| TGTTACACGTGCCTTG | 0.11 kcal/mol |
| TAACTCACGTGTAGGT | 0.19 kcal/mol |
| GAGATCACGTGAGTTG | 0.23 kcal/mol |
| GATATCACGTGTAGGG | 0.21 kcal/mol |
| AATGTCACGTGGGACT | -0.13 kcal/mol |
| GGTCACACGTGATAGG | 0.17 kcal/mol |
| ATTTGCACGTGGTATT | -0.02 kcal/mol |
| TGTCCCACGTGGGGTA | -0.15 kcal/mol |
| TTATGCACGTGTTAGT | 0.05 kcal/mol |
| TTAGGCACGTGTTTGG | -0.11 kcal/mol |
| AAGAGCACGTGGGGTA | -0.21 kcal/mol |
| TGATGCACGTGTATGT | 0.05 kcal/mol |

| Sequence | relative binding free energy |
| --- | --- |
| TCTATCACGTGATTAG | 0.31 kcal/mol |
| GTAGGCACGTGGGTCA | -0.23 kcal/mol |
| TCGAGCACGTGGATTT | 0.12 kcal/mol |
| TGGTTCACGTGGCGGG | 0.28 kcal/mol |
| AGTAACACGTGAAGGG | 0.22 kcal/mol |
| TAGGTCACGTGAAATT | 0.33 kcal/mol |
| GGTGTCACGTGGGAGA | -0.04 kcal/mol |
| GTCGTCACGTGGGAGG | 0.09 kcal/mol |
| TTGAACACGTGGAAGT | 0.15 kcal/mol |
| ATTTACACGTGGGAGG | 0.15 kcal/mol |
| GCGTGCACGTGTGAAT | 0.22 kcal/mol |
| TTTCTCACGTGGAGCG | 0.37 kcal/mol |
| ACTGGCACGTGTTAAG | 0.02 kcal/mol |
| ATGAGCACGTGAGGTC | 0.18 kcal/mol |
| AATATCACGTGGTGAG | 0.14 kcal/mol |
| GGTCTCACGTGTGGGT | 0.27 kcal/mol |
| GATTACACGTGGTATT | -0.11 kcal/mol |
| TATGTCACGTGGCTTG | 0.11 kcal/mol |
| ATAAGCACGTGGTGGC | -0.19 kcal/mol |
| TGGTGCACGTGATATG | -0.08 kcal/mol |
| GGCTTCACGTGGTGTT | 0.23 kcal/mol |
| ATAGGCACGTGAGTAA | 0 kcal/mol |
| TAAGTCACGTGGTTCT | 0.22 kcal/mol |
| TTGCGCACGTGGTGTT | -0.18 kcal/mol |
| GGTGTCACGTGGTCAA | 0.14 kcal/mol |

| Sequence | relative binding free energy |
| --- | --- |
| TAGGCCACGTGTGCGG | -0.14 kcal/mol |
| GATGGCACGTGTGCAA | 0 kcal/mol |
| AGGGACACGTGAAGGC | 0.36 kcal/mol |
| GTTGCCACGTGTACGT | 0.05 kcal/mol |
| GGGGCCACGTGAGTAT | 0.09 kcal/mol |
| AGTTTCACGTGTGAAA | 0.25 kcal/mol |
| ATATGCACGTGTTTGC | 0.03 kcal/mol |
| TGAAACACGTGTTCGG | 0 kcal/mol |
| GCGTTCACGTGGGTAG | 0.22 kcal/mol |
| ATATGCACGTGCGATT | 0.02 kcal/mol |
| TAAATCACGTGGGCGA | 0.08 kcal/mol |
| GTAGTCACGTGATCTG | 0.13 kcal/mol |
| ATGTGCACGTGCGGCT | -0.15 kcal/mol |
| TTGCGCACGTGTCGGG | -0.28 kcal/mol |
| TTGCACACGTGGTAGG | -0.18 kcal/mol |
| AGGTTCACGTGCGGTG | 0.3 kcal/mol |
| GTAATCACGTGGAGGC | 0.18 kcal/mol |
| AGGCTCACGTGGGTAT | 0.04 kcal/mol |
| CAGGGCACGTGGTTGC | -0.21 kcal/mol |
| AGCAACACGTGGTAGT | 0.06 kcal/mol |
| TCGTTCACGTGGGTGC | 0.1 kcal/mol |
| GTCTGCACGTGTAGTG | 0.02 kcal/mol |
| ATCGGCACGTGTGCGG | -0.05 kcal/mol |
| CTTATCACGTGAGGTG | 0.16 kcal/mol |
| GGGGTCACGTGGGGTG | 0.05 kcal/mol |

| Sequence | relative binding free energy |
| --- | --- |
| AGTTACACGTGATAGG | 0.17 kcal/mol |
| GGCAGCACGTGTTGGA | -0.08 kcal/mol |
| CGTGGCACGTGTATGG | -0.03 kcal/mol |
| TGTGGCACGTGACATG | -0.02 kcal/mol |
| TTGGGCACGTGAAGAA | 0.11 kcal/mol |
| ATTAGCACGTGCGTGG | -0.18 kcal/mol |
| TCCTTCACGTGTGTTT | 0.22 kcal/mol |
| TTAGTCACGTGGAGGG | 0.09 kcal/mol |
| AGAATCACGTGTTTTT | 0.28 kcal/mol |
| GAAGACACGTGGGATG | -0.06 kcal/mol |
| CGGTTCACGTGAGCGG | 0.38 kcal/mol |
| TAGGACACGTGCGTGT | 0.04 kcal/mol |
| TTTATCACGTGTGTTT | 0.23 kcal/mol |
| TTGTTCACGTGGCGAT | 0.19 kcal/mol |
| TTGGTCACGTGTGACT | 0.08 kcal/mol |
| CTGTTCACGTGAATGT | 0.35 kcal/mol |
| AGCGTCACGTGAGTTG | 0.22 kcal/mol |
| CAGATCACGTGGATGG | 0.12 kcal/mol |
| GGTGGCACGTGGGAAG | -0.01 kcal/mol |
| TGGGACACGTGCTAAG | 0.11 kcal/mol |
| GGTTTCACGTGACGGG | 0.36 kcal/mol |
| ATGATCACGTGTACGG | 0.12 kcal/mol |
| CATGGCACGTGAGGTG | 0.2 kcal/mol |
| TGATGCACGTGGTCTG | -0.14 kcal/mol |
| TTGGTCACGTGAAGGA | 0.39 kcal/mol |

| Sequence | relative binding free energy |
| --- | --- |
| GTGAACACGTGTAGGC | 0.05 kcal/mol |
| CATGACACGTGGGCGG | -0.08 kcal/mol |
| TGGCTCACGTGAAAGT | 0.4 kcal/mol |
| GTCAACACGTGTGTGG | -0.05 kcal/mol |
| GGTATCACGTGGAAAT | 0.28 kcal/mol |
| GTTTGCACGTGGCGGG | -0.07 kcal/mol |
| TTCGGCACGTGGTTGA | -0.11 kcal/mol |
| GTAATCACGTGTTGTC | 0.1 kcal/mol |
| GCTTTCACGTGCTTTT | 0.28 kcal/mol |
| TCTGGCACGTGGTCAG | -0.15 kcal/mol |
| GTAGGCACGTGTGGAC | -0.02 kcal/mol |
| GGTTCCACGTGCGTGT | 0.03 kcal/mol |
| AAGGACACGTGGGGTC | -0.1 kcal/mol |
| TGGGGCACGTGGATAG | -0.14 kcal/mol |
| TGTCACACGTGGTATA | -0.01 kcal/mol |
| ATTAGCACGTGTAGCG | -0.1 kcal/mol |
| CTTTTCACGTGCTAGG | 0.22 kcal/mol |
| GGTTCCACGTGGCGGG | -0.1 kcal/mol |
| AACGGCACGTGGTGTT | -0.19 kcal/mol |
| CGTGACACGTGAGGTA | 0.17 kcal/mol |
| TAAGGCACGTGCGCGT | -0.22 kcal/mol |
